# Data as given in ChEMBL document CHEMBL4888484, “Replenishing the malaria drug discovery pipeline: Screening and hit evaluation of the MMV Hit Generation Library 1 (HGL1) against asexual blood stage Plasmodium falciparum ,using a nano luciferase reporter read-out” (2022).
# Hit rate of the full screen: of about 150,000 compounds, about 540 (0.36%) showed an effect of 50% or more. This is one part of the list.
# Test system: Plasmodium falciparum
# Test: Primary screen in NF54 nanoGlo assay, in single point, at 2uM, 72h; a lower Z score goes with more inhibition
# Type: functional, Erythrocyte
# Conditions: timepoint 72 hour
SMILES,% Inhibition [%],Z score
Cc1cc(CN2CCc3ccccc3[C@@H]2CO)nc(N(C)C)n1,2,-0.18
CO[C@H](c1nc(-c2cc3c([nH]c2=O)CCCC3)no1)C1CC1,-15,1.56
O=S(=O)(CCc1nc([C@H]2CCOC2)n[nH]1)c1ccccc1,-4,0.87
CC(=O)Nc1cccc(-c2noc(C3CCCC3)n2)c1,-11,1.94
Cc1cnc(C[C@H]2CCCN(S(=O)(=O)c3cccc4nsnc34)C2)n1C(C)C,3,-0.43
Cn1ccc2ccc(CCC(=O)N3CCOCC3)cc21,-11,1.27
NC(=O)Cn1nc(-c2ccc(N3CCCCC3)cc2)ccc1=O,-13,1.71
CCC(C)NC(=O)[C@H]1CN(C(=O)OC(C)(C)C)C[C@@H]1C(=O)NC(C)CC (stereo partly drawn),-8,1.11
COC(=O)C[C@H](c1c(F)cccc1Cl)c1c(C)[nH][nH]c1=O,-6,1.14
Cc1noc(CNC(=O)COc2cccc3c2ccn3C)n1,5,-0.63
CC(C)c1ccnc(N2CCN(C(=O)[C@@H]3CCCO3)CC2)n1,-10,1.14
COc1ccc(CN2C(=O)[C@@H]3CN(C(N)=O)CCN3C2=O)cc1Br,-7,1.12
COc1ccc(OCc2nc(C(=O)N[C@@H](C)c3ccc(F)cc3)co2)cc1,-1,0.1
CC(=O)N1CCN(C(=O)[C@@H]2Cc3cc(Cl)ccc3O2)CC1,3,-0.54
OCC(CO)NC(C1CCNCC1)[C@H]1C[C@H](O)C1 (stereo partly drawn),-9,1.41
CN(Cc1ncccn1)c1nc(C2CCCCC2)ns1,0,-0.06
CCn1c(C(=O)O)cc2c(-c3cccs3)nn(-c3ccccc3)c21,-4,0.5
CCOC1CC1C(=O)Nc1nc(CC)c(C)s1 (stereo not drawn),-3,0.32
COCCN(CCO)C(=O)Nc1ccccc1,0,0.06
CCOc1ccc(-n2nnc(C)c2C(=O)N2CCN(C)CC2)cc1,-16,1.39
Cc1oc(C(C)(C)C)cc1CN1CCN(S(C)(=O)=O)CC1,4,-0.63
O=C(NCCCN1CCCCC1)C1CCN(c2nc3ccccc3n(Cc3ccccc3)c2=O)CC1,-4,0.67
Cc1nn(-c2ncc(NC(=O)c3cccnc3)cn2)c(C)c1C,4,-0.61
Cc1cccc2nnc(N3CCC[C@H](C(=O)N4CCN(C)CC4)C3)n12,-7,1.24
Cc1nn(C)c(C)c1S(=O)(=O)N1CCN(C(=O)c2ccc(N(C)C)cc2)CC1,-2,0.24
CN(CCO)c1ccc(NCc2ccc(F)cc2Cl)nc1,-9,0.83
Cc1cc(Cl)cc2c1NC(=O)C21N2CCCC2C(C(=O)c2ccc3ccccc3c2)C12C(=O)Nc1ccccc12 (stereo not drawn),-15,1.99

SMILES,% Inhibition [%],Z score
O=C(c1ccncc1)N1CC[C@H](c2nc3ccccc3[nH]2)C1,23,-2.58
COC(=O)C[C@H]1CCN(c2ncnc(C)c2C)C1,-17,1.87
CN(C(=O)c1coc(C2CCCCC2)n1)[C@@H](CCO)c1ccccc1,-9,1.09
CC(C)Oc1cc(N(C)Cc2nncn2C(C)C)nc(N)n1,-12,1.34
CC(C)(C)OC(=O)NCc1cnn(Cc2ccccc2C#N)c1,5,-0.63
O=C(Nc1ccc(Oc2ccccc2)cc1)/C(=C/c1ccco1)c1ccccc1,-5,0.68
Cn1cc(CCCNc2cc([C@H]3C[C@@H](N)C3)nc(N3CCCC3)n2)cn1,-1,0.07
O=C(NC[C@H]1COc2ccccc21)c1c(F)cccc1F,11,-1.39
C[C@@H](CN1CCOCC1)NC(=O)c1nccnc1N,-6,1.1
COc1ccc(S(=O)(=O)N2CCC3(CC2)C[C@@H]3NC(=O)c2ccncc2)cc1,-4,0.58
C[C@H](NCCn1ccnc1)c1cccc(F)c1F,-9,1.67
Cc1cnc(Cn2cnc(-c3ccccc3)c2-c2ccccc2C(=O)O)cn1,-14,1.3
CCc1ncc([C@H]2N(C)C(=O)c3ccccc3N2CC(=O)NC)s1,-7,0.93
COc1ccc(N2CCN(C(=O)C[C@]3(c4ccccc4F)CC(=O)N(C4CCCC4)C3=O)CC2)cc1,13,-2.41
Cc1ccc(-n2ncc3c(O)c(-c4nc(-c5ccc(Cl)cc5)no4)c(=O)[nH]c32)cc1,-15,2.38
CCN=C(NCC)NCc1ccc(Cl)cc1,-15,2.13
COc1ccc(-c2ccnc(-n3ncc(C(=O)NC4CCCC4)c3C)n2)cc1F,-7,0.96
CC(C)(C)OC(=O)N1CCC(CC(=O)Nc2cnccc2O)CC1,-19,1.86
O=C(NCCN1c2ccccc2N(C2CC2)S1(=O)=O)c1ccoc1,-12,1.9
C[C@@H](C1CC1)N(C)S(=O)(=O)NCc1nnc2ccccn12,-11,0.95
CCn1nc(CC(C)C)cc1C(=O)N1CCC(Cc2nc(C)no2)CC1,-14,2.21
Cn1nc(-c2ccccc2)c(CN(CC2CC2)C[C@H](O)CN2CCOCC2)c1Oc1ccccc1F,2,-0.25
CC1CCC(OC2CCN(S(C)(=O)=O)CC2)CC1 (stereo not drawn),-4,0.7
CC1CC(C(=O)N2CCCCCCC2)C1 (stereo not drawn),4,-0.43
O=C(NCC1CC1)c1cnc(-c2ccc(F)cc2)nc1N1CCC(Cc2ccccc2)CC1,-5,0.81
COC[C@H]1CN(c2ccc3nccnc3n2)CCO1,-25,2.9
CCOC(=O)C1CCN(C(=O)C(Cl)(Cl)Cl)CC1,-4,0.78
